Results from PubChem BioAssay AID485344 (National Center for Advancing Translational Sciences (NCATS), 2010).
The campaign covered roughly 340,000 compounds. About 6,900 (2%) were called active. Cut-off read from the data, not from the text of the source: active = inhibition above about 30%; inactive = below that, where a call was filed. Only a part is listed here, and it is no random draw. Where no call is shown, the source filed none.

The molecules below were run against D(2) dopamine receptor (Homo sapiens) (UniProt P14416) (assay: HTS Assay for Allosteric Antagonists of the Human D2 Dopamine Receptor: Primary Screen for Antagonists). Conditions: HEK293 TREx D2 cells, calcium flux, dopamine EC80; at 10 µM; stronger effect = higher value.
Sequence of UniProt P14416 (P14416 whole entry, looked up): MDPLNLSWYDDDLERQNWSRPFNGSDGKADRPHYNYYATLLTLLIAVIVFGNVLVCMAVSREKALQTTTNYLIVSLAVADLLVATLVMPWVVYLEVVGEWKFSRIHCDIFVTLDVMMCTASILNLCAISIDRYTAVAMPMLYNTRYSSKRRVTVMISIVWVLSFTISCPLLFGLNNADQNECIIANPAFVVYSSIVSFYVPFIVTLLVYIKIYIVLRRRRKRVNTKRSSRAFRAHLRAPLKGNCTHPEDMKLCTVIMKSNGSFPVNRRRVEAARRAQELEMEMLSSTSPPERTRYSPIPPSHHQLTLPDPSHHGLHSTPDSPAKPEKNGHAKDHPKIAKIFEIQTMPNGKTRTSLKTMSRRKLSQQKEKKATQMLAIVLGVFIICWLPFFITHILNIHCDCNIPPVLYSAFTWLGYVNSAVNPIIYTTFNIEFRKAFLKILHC
Method in brief: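 Antagonism is scored as inhibition of an EC80 dopamine-evoked calcium signal in a force-coupled, tetracycline-inducible HEK293 T-REx D2 line, with compound present 180 s before agonist.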
Note: 0% is about no effect.

| SMILES | inhibition |
| --- | --- |
| CC1CCCN(CC(O)COC(c2ccccc2)c2ccccc2)C1 (stereo not drawn) | active: 50.2% |
| Cc1ccccc1CSc1nc2cccnc2n1Cc1ccc(C(=O)NCCc2cccs2)cc1 | 20.9% |
| COc1ccc(Cl)cc1N(C)C(=O)C(=O)Nc1ccc2nc3n(c(=O)c2c1)CCCCC3 | -3.02% |
| COc1ccc(NC(=O)CSc2nc(-c3ccccc3)nc3c2Cc2c(CO)cnc(C)c2O3)cc1Cl | -1.4% |
| Cc1ccc(CN(C(=O)COc2ccc(Br)cc2)c2ccccn2)o1 | 6.54% |
| Cc1ccc(N2CCN(C(=O)c3noc4c3COc3ccc(C)cc3-4)CC2)c(C)c1 | 10.5% |
| CCOc1cccc2sc(N(CCN(C)C)C(=O)c3ccc(Br)s3)nc12 | active: 32.8% |
| Cc1ccc(C)c(N2CCN(C(=O)C(C)n3c(C)c4cnn(-c5ccccc5)c(=O)c4c3C)CC2)c1 (stereo not drawn) | 16.5% |
| Cc1ccccc1-c1noc(-c2ccccc2OCC(=O)Nc2ccccc2[N+](=O)[O-])n1 | -5.83% |
| CCc1ccc(S(=O)(=O)c2nnn3c2nc(NCc2ccccc2OC)c2cc(Cl)ccc23)cc1 | -4.99% |
| CCc1ccc(NC(=O)CN(Cc2ccccc2)S(=O)(=O)c2ccc3nc(C)sc3c2)cc1 | -3.59% |
| Cn1c(=O)oc2cc(S(=O)(=O)Nc3ccc(O)cc3)ccc21 | -10.6% |
| COC(=O)CN1C(=O)COc2ccc(S(=O)(=O)N3CCOCC3)cc21 | active: 46.3% |
| N#Cc1cccc(NC(=O)c2ccc3c(c2)N(Cc2cccc(Cl)c2)C(=O)c2ccccc2S3(=O)=O)c1 | 8.92% |
| O=C(Nc1nnc(S(=O)(=O)N2CCOCC2)s1)c1ccc(F)cc1 | 23.5% |
| O=C(c1ccc(F)cc1F)N1CCC(c2noc(-c3ccc(S(=O)(=O)N4CCCC4)cc3)n2)CC1 | 8.39% |
| CCOc1ccc(CNC(=O)C2Cc3cc(S(=O)(=O)N4CCCCCC4)ccc3N2C(C)=O)cc1 (stereo not drawn) | 8.91% |
| CCC(C(=O)NCCCN(CC)CC)n1ncn2c(cc3occc32)c1=O (stereo not drawn) | 19.7% |
| Clc1ccc(CN2CCC(c3nc4ccc(Cl)cc4[nH]3)CC2)cc1 | active: 82.2% |
| O=C(Nc1ccccc1C(F)(F)F)N1CCN(c2ccc3nnc(-c4ccc(F)cc4)n3n2)CC1 | 2.3% |
| O=C(CCn1cnc2onc(-c3ccc(F)cc3)c2c1=O)N1CCN(c2cccc(Cl)c2)CC1 | 2.64% |
| O=C(NCCN1CCN(c2cccc(Cl)c2)CC1)C1CCCN(S(=O)(=O)c2cnc[nH]2)C1 (stereo not drawn) | active: 81% |
| CC(=O)Nc1cccc(NC(=O)Nc2cccc3ccccc23)c1 | active: 46% |
| Cc1ccc(NC(=O)C2CCCN(c3ncnc4onc(C)c34)C2)cc1Cl (stereo not drawn) | -0.665% |

| SMILES | inhibition |
| --- | --- |
| O=C(c1ccccc1)c1ccc2nc(N3CCN(c4ccc(F)cc4)CC3)c3nncn3c2c1 | -6.19% |
| Cc1ccc(S(=O)(=O)c2nnn3c2nc(N2CCN(c4cccc(C)c4C)CC2)c2ccccc23)cc1C | -14.7% |
| CCN(CC)C(=O)C(C)OC(=O)c1ccc(O)cc1 (stereo not drawn) | active: 30.3% |
| COc1ccccc1-c1cc2nc(C)c(CCC(=O)NC3CCCCC3)c(C)n2n1 | -10.2% |
| O=C(Nc1cc(F)ccc1F)c1cnn2c(C(F)F)cc(-c3ccccc3)nc12 | 7.39% |
| COc1cc(OC)c(NC(=O)C(C)n2nc(-c3ccc(C)cc3)c3c(c2=O)CCCC3)cc1Cl (stereo not drawn) | 4.03% |
| N#Cc1ccccc1NC(=O)C(=O)NCC(c1cccnc1)N1CCc2ccccc21 (stereo not drawn) | -4.82% |
| CCOCCCNC(=O)Cn1nc(CC)n2c(cc3c(OC)cccc32)c1=O | -1.1% |
| COC(=O)c1ccc(NC(=O)CSc2nc3cc4ccccc4cc3[nH]2)cc1 | 6.33% |
| CCOC(=O)CC(NC(=O)CCc1c(C)nc2cc(-c3ccccc3)nn2c1C)c1ccc(C)cc1 (stereo not drawn) | -11.8% |
| COc1ccccc1-c1cc(C(=O)N/N=C/c2ccc(C)s2)c2ccccc2n1 | active: 47.7% |
| COc1ccc(NC(=O)c2nnn(CC(=O)Nc3cc(C)cc(C)c3)c2N)c(OC)c1 | 17.9% |
| CCN(C(=O)c1cc(S(=O)(=O)N2CCCC2)cn1C)c1ccc(OC)cc1 | -7.4% |
| COc1ccc(Cn2c(SCc3ccc(C(=O)NCc4cccs4)cc3)nc3ccncc32)cc1 | -0.887% |
| O=S(=O)(c1ccccc1)c1nc(-c2ccco2)oc1SCc1ccc(F)cc1 | 3.41% |
| COc1ccc(C23CC4CC(CC(C4)C2)C3)cc1C(=O)NCCN(C)C | active: 33.5% |
| CCCCC(=O)Nc1ccc(C(=O)OCc2cc(=O)n3ccsc3n2)cc1 | 9.31% |
| Cc1ccc(NC(=O)Cn2c(=O)cc(-c3ccccc3)c3c(C)nn(C)c32)c(Cl)c1 | 10.8% |
| Cc1ccc(C)c(NC(=O)Cn2c(=O)n(CC(=O)NCCc3ccccc3)c(=O)c3ccccc32)c1 | 1.97% |
| O=C(CCCn1c(=O)[nH]c2ccsc2c1=O)N1CCN(c2ccc(Cl)cc2)CC1 | 5.28% |
| CCOC(=O)c1sc2cccc(F)c2c1S(=O)(=O)Nc1ccccc1F | 14% |
| O=C(CSc1nnc(-c2ccc(Cl)cc2)c(-c2ccc(Cl)cc2)n1)NC1CCCC1 | -6.82% |
| Cc1ccc(-c2nc(CNC(=O)NC3CCCCC3)c(C)o2)cc1 | 12.6% |
| CC(=O)c1cccc(NC(=O)Nc2cc3c(cc2N2CCCC2)n(C)c(=O)n3C)c1 | -12.4% |

| SMILES | inhibition |
| --- | --- |
| CCc1ccc(C(=O)Nc2cccc(-c3nc4cc(C(C)C)ccc4o3)c2)cc1 | -3.24% |
| CCn1cc(C(=O)NCc2ccccc2Cl)c(=O)c2cc(S(=O)(=O)N3CCCCCC3)ccc21 | 4.31% |
| CCOc1ccc(Nc2oc(-c3ccc(COc4ccc(C)cc4)o3)nc2C#N)cc1 | -4.11% |
| CC1CCCN(S(=O)(=O)c2cc(C(=O)NCCc3ccccc3)n(C)c2)C1 (stereo not drawn) | -7.12% |
| COc1ccc(CNC(=O)c2ccc3c(c2)CCN3S(=O)(=O)c2ccccc2)cc1 | -16.3% |
| Cc1ccccc1CNC(=O)c1ccc(Cn2c(SCc3ccccc3)nc3cccnc32)cc1 | 3.96% |
| O=C(Nc1cccs1)Nc1cccnc1Cl | active: 36.7% |
| CC(=O)N(CCC1(C(C)C)CCOC(C)(C)C1)Cc1ccco1 (stereo not drawn) | active: 38.4% |
| CCC1(c2ccccc2)NC(=O)N(CC(=O)NNC(=O)CCN2CCN(c3ccccc3)CC2)C1=O (stereo not drawn) | active: 88.6% |
| COc1ccc(OC)c(S(=O)(=O)NCc2ccc3c(c2)CCN3C(=O)c2cccc(C)c2)c1 | 2.44% |
| Cc1cccc(N2C(=O)N(Cc3ccc(C(C)(C)C)cc3)c3ccccc3S2(=O)=O)c1 | -25.4% |
| CCCOCc1cc(CN2CCN(c3ccccc3OC)CC2)c(O)c2ncccc12 | 2.37% |
| O=C(NCc1ccc(Cl)cc1)c1cnc(N2CCOCC2)c2ccccc12 | 1.52% |
| COc1ccccc1NC(=O)C1=C(C)Nc2nc(SCC(=O)c3ccc(C)cc3)nn2C1c1ccc(F)cc1 (stereo not drawn) | 0.721% |
| Cc1ccc(CSCCNC(=O)CN(c2cccc(C)c2C)S(=O)(=O)c2ccccc2)cc1 | -13.4% |
| CC(C)COc1ccc(C(=O)N2CCC(c3nc4ccccc4s3)CC2)cc1 | 3.24% |
| Cc1ccc2occ(CC(=O)Nc3c(C(=O)Nc4ccc(Cl)cc4)oc4ccccc34)c2c1 | -1.86% |
| O=C(CC1N=C2c3ccccc3N=C(SCC(=O)Nc3ccccc3F)N2C1=O)NCc1ccc2c(c1)OCO2 (stereo not drawn) | 7.69% |
| CN(C(=O)CSc1nc2ccccc2[nH]1)c1ccc(F)cc1 | 3.41% |
| Cc1ccc(CSc2nncn3c2cc2sccc23)cc1 | -7.96% |
| COc1ccc(N2CCN(c3nc4ccccc4n4c(C)nnc34)CC2)cc1 | 6.39% |
| CCOC(=O)CC(NS(=O)(=O)c1cc(-c2cc(C)no2)ccc1C)c1ccc(C)cc1 (stereo not drawn) | 5.34% |
| CC(C)CCn1c(=O)c2sccc2n2c(CCCC(=O)Nc3ccc(C(C)C)cc3)nnc12 | 5.22% |
| CC(Oc1ccccc1)C(=O)Nc1c2c(nn1-c1ccccc1)CS(=O)C2 (stereo not drawn) | active: 30.2% |

| SMILES | inhibition |
| --- | --- |
| CCOc1ccc(C(=O)Nc2ccc3nc4c(c(Nc5ccccc5OC)c3c2)CCCC4)cc1 | 5.75% |
| CCC1CCc2sc(C(=O)NC3CCN(Cc4ccccc4)CC3)cc2C1 (stereo not drawn) | active: 76.8% |
| CCOc1ccc2nc(NC(=O)c3nc(SCc4ccc(C)cc4)ncc3Cl)sc2c1 | 0.859% |
| O=C(Cn1c(=O)n(Cc2ccc(C(=O)NCc3ccc4c(c3)OCO4)cc2)c(=O)c2ccccc21)Nc1cccc(Cl)c1 | -18.6% |
| O=C1Cc2cc(S(=O)(=O)N3CCCCC3)cc3c2N1CCC3 | 18.1% |
| Cc1ccc(N2CC(NC(=O)Cc3ccc(F)cc3)CC2=O)cc1 (stereo not drawn) | -4.79% |
| Cc1cccc(CSc2nc(=O)c3c(n2C)NC(=O)CC3c2cccc(O)c2)c1 (stereo not drawn) | -11.5% |
| Cc1ccc2c(c1)sc1nc(-c3cc4cc(Cl)ccc4oc3=O)cn12 | -22.9% |
| COc1ccccc1NC(=O)Cn1c(=O)n(-c2cccc(Cl)c2)c(=O)c2sc3ccccc3c21 | 3.82% |
| CCOC(=O)c1cc(-c2ccc(C)cc2)n(CCC(=O)Nc2cc(Cl)ccc2C)c1C | 12.1% |
| O=S(=O)(NCC1CCCO1)c1ccc(S(=O)(=O)N(Cc2ccccn2)C2CC2)cc1 (stereo not drawn) | active: 74.1% |
| CCOc1ccc(CCNC(=O)c2cc(Nc3ccc(C)cc3C)nc3ccccc23)cc1OCC | 1.09% |
| CC1CCN(S(=O)(=O)c2ccc3[nH]cc(C(=O)NCc4ccc(F)cc4)c(=O)c3c2)CC1 | 6.79% |
| CCc1ccc(C2CC(=O)c3c([nH]c(C(=O)OCc4ccc(C)cc4)c3C)C2)cc1 (stereo not drawn) | 2.86% |
| Cc1noc(-c2ccc(-c3noc(-c4ccccc4)n3)cc2)n1 | -21.3% |
| Cc1ccc(SC[C@H](c2ccccc2)N2CCN(CCc3ccccc3)CCC2=O)cc1 | active: 40.7% |
| O=C(NCCc1ccc(Cl)cc1)c1ccc(CS(=O)(=O)Cc2ccc(Cl)cc2)o1 | 25.3% |
| Cc1cc(C)cc(NC(=O)Cn2c(=O)n(CC(=O)NCCc3ccccc3)c(=O)c3ccccc32)c1 | 4.55% |
| COc1cc(OC)c(C(=O)Oc2ccc3c(c2)OCO3)cc1OC | active: 30.2% |
| Cc1ccc(C(=O)c2cn(Cc3c(F)cccc3Cl)c3nc(C)ccc3c2=O)cc1 | 0.933% |
| Cc1ccc(CNC(=O)CN2C(=O)COc3ccccc32)cc1 | -4.04% |
